Experimental data reported in the supplement of paper PMC8728848.
Some of the results follow.

What was measured:
Experiment in all cases: glycan array binding signal (z-score within array); higher = stronger binding
Conditions in all cases: glycan notation: IUPAC condensed, linker removed
Neu5Ac(a2-3)Gal(b1-4)Glc = biological target: Neu5Ac(a2-3)Gal(b1-4)Glc
Summary of the method: (§1)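 The Consortium for Functional Glycomics database supplied 3228 glycan arrays, of which those lacking an available protein sequence were dropped. The binding signal, a within-array Z-score, was averaged across arrays of the same protein sequence and across linkers. Negative scores can be read as non-binding.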

[1] = biological target: Neu5Ac(a2-3)Gal(b1-4)GlcNAc
Summary of the method: as §1

[2] = biological target: Neu5Ac(a2-3)Gal(b1-4)GlcNAc(b1-2)Man
Summary of the method: as §1

[3] = biological target: Neu5Ac(a2-3)Gal(b1-4)GlcNAc(b1-2)Man(a1-3)[GlcNAc(b1-2)Man(b1-4)GlcNAc(b1-2)Man(a1-6)]Man(b1-4)GlcNAc(b1-4)GlcNAc
Summary of the method: as §1

[4] = biological target: Neu5Ac(a2-3)Gal(b1-4)GlcNAc(b1-2)Man(a1-3)[GlcNAc(b1-4)][Neu5Ac(a2-3)Gal(b1-4)GlcNAc(b1-2)Man(a1-6)]Man(b1-4)GlcNAc(b1-4)GlcNAc
Summary of the method: as §1

[5] = biological target: Neu5Ac(a2-3)Gal(b1-4)GlcNAc(b1-2)Man(a1-3)[Neu5Ac(a2-3)Gal(b1-4)GlcNAc(b1-2)Man(a1-6)]Man(b1-4)GlcNAc(b1-4)GlcNAc
Summary of the method: as §1

[6] = biological target: Neu5Ac(a2-3)Gal(b1-4)GlcNAc(b1-2)Man(a1-3)[Neu5Ac(a2-3)Gal(b1-4)GlcNAc(b1-2)Man(a1-6)]Man(b1-4)GlcNAc(b1-4)[Fuc(a1-6)]GlcNAc
Summary of the method: as §1

[7] = biological target: Neu5Ac(a2-3)Gal(b1-4)GlcNAc(b1-2)Man(a1-3)[Neu5Ac(a2-6)Gal(b1-4)GlcNAc(b1-2)Man(a1-6)]Man(b1-4)GlcNAc(b1-4)GlcNAc
Summary of the method: as §1

[8] = biological target: Neu5Ac(a2-3)Gal(b1-4)GlcNAc(b1-2)[Neu5Ac(a2-3)Gal(b1-4)GlcNAc(b1-4)]Man(a1-3)[GlcNAc(b1-4)][Neu5Ac(a2-3)Gal(b1-4)GlcNAc(b1-2)[Neu5Ac(a2-3)Gal(b1-4)GlcNAc(b1-6)]Man(a1-6)]Man(b1-4)GlcNAc(b1-4)GlcNAc
Summary of the method: as §1

[9] = biological target: Neu5Ac(a2-3)Gal(b1-4)GlcNAc(b1-2)[Neu5Ac(a2-3)Gal(b1-4)GlcNAc(b1-4)]Man(a1-3)[GlcNAc(b1-4)][Neu5Ac(a2-3)Gal(b1-4)GlcNAc(b1-4)Man(a1-6)]Man(b1-4)GlcNAc(b1-4)GlcNAc
Summary of the method: as §1

[10] = biological target: Neu5Ac(a2-3)Gal(b1-4)GlcNAc(b1-2)[Neu5Ac(a2-3)Gal(b1-4)GlcNAc(b1-6)]Man(a1-6)[Neu5Ac(a2-3)Gal(b1-4)GlcNAc(b1-2)Man(a1-3)]Man(b1-4)GlcNAc(b1-4)GlcNAc
Summary of the method: as §1

[11] = biological target: Neu5Ac(a2-3)Gal(b1-4)GlcNAc(b1-2)[Neu5Ac(a2-3)Gal(b1-4)GlcNAc(b1-6)]Man(a1-6)[Neu5Ac(a2-3)Gal(b1-4)GlcNAc(b1-2)Man(a1-3)][GlcNAc(b1-4)]Man(b1-4)GlcNAc(b1-4)GlcNAc
Summary of the method: as §1

[12] = biological target: Neu5Ac(a2-3)Gal(b1-4)GlcNAc(b1-3)Gal
Summary of the method: as §1

[13] = biological target: Neu5Ac(a2-3)Gal(b1-4)GlcNAc(b1-3)Gal(b1-3)GlcNAc
Summary of the method: as §1

[14] = biological target: Neu5Ac(a2-3)Gal(b1-4)GlcNAc(b1-3)Gal(b1-4)GlcNAc
Summary of the method: as §1

[15] = biological target: Neu5Ac(a2-3)Gal(b1-4)GlcNAc(b1-3)Gal(b1-4)GlcNAc(b1-2)Man(a1-3)[Neu5Ac(a2-3)Gal(b1-4)GlcNAc(b1-3)Gal(b1-4)GlcNAc(b1-2)Man(a1-6)]Man(b1-4)GlcNAc(b1-4)GlcNAc
Summary of the method: as §1

[16] = biological target: Neu5Ac(a2-3)Gal(b1-4)GlcNAc(b1-3)Gal(b1-4)GlcNAc(b1-3)Gal(b1-4)GlcNAc
Summary of the method: as §1

[17] = biological target: Neu5Ac(a2-3)Gal(b1-4)GlcNAc(b1-3)Gal(b1-4)GlcNAc(b1-3)Gal(b1-4)GlcNAc(b1-2)Man(a1-3)[Neu5Ac(a2-3)Gal(b1-4)GlcNAc(b1-3)Gal(b1-4)GlcNAc(b1-3)Gal(b1-4)GlcNAc(b1-2)Man(a1-6)]GalNAc
Summary of the method: as §1

[18] = biological target: Neu5Ac(a2-3)Gal(b1-4)GlcNAc(b1-3)Gal(b1-4)GlcNAc(b1-3)GalNAc
Summary of the method: as §1

[19] = biological target: Neu5Ac(a2-3)Gal(b1-4)GlcNAc(b1-3)Gal(b1-4)GlcNAc(b1-3)[Neu5Ac(a2-3)Gal(b1-4)GlcNAc(b1-3)Gal(b1-4)GlcNAc(b1-6)]GalNAc
Summary of the method: as §1

[20] = biological target: Neu5Ac(a2-3)Gal(b1-4)GlcNAc(b1-3)Gal(b1-4)GlcNAc(b1-6)[Gal(b1-3)]GalNAc
Summary of the method: as §1

[21] = biological target: Neu5Ac(a2-3)Gal(b1-4)GlcNAc(b1-3)Gal(b1-4)[Fuc(a1-3)]GlcNAc
Summary of the method: as §1

[22] = biological target: Neu5Ac(a2-3)Gal(b1-4)GlcNAc(b1-3)GalNAc
Summary of the method: as §1

[23] = biological target: Neu5Ac(a2-3)Gal(b1-4)GlcNAc(b1-3)[Neu5Ac(a2-3)Gal(b1-4)GlcNAc(b1-6)]GalNAc
Summary of the method: as §1

[24] = biological target: Neu5Ac(a2-3)Gal(b1-4)GlcNAc(b1-6)GalNAc
Summary of the method: as §1

[25] = biological target: Neu5Ac(a2-3)Gal(b1-4)GlcNAc(b1-6)[Gal(b1-3)]GalNAc
Summary of the method: as §1

[26] = biological target: Neu5Ac(a2-3)Gal(b1-4)GlcNAc(b1-6)[Neu5Ac(a2-3)Gal(b1-3)]GalNAc
Summary of the method: as §1

[27] = biological target: Neu5Ac(a2-3)Gal(b1-4)GlcNAc6S
Summary of the method: as §1

[28] = biological target: Neu5Ac(a2-3)Gal(b1-4)[Fuc(a1-3)]GlcNAc
Summary of the method: as §1

[29] = biological target: Neu5Ac(a2-3)Gal(b1-4)[Fuc(a1-3)]GlcNAc(b1-2)Man
Summary of the method: as §1

[30] = biological target: Neu5Ac(a2-3)Gal(b1-4)[Fuc(a1-3)]GlcNAc(b1-3)Gal
Summary of the method: as §1

[31] = biological target: Neu5Ac(a2-3)Gal(b1-4)[Fuc(a1-3)]GlcNAc(b1-3)Gal(b1-4)GlcNAc
Summary of the method: as §1

[32] = biological target: Neu5Ac(a2-3)Gal(b1-4)[Fuc(a1-3)]GlcNAc(b1-3)Gal(b1-4)[Fuc(a1-3)]GlcNAc(b1-3)Gal(b1-4)[Fuc(a1-3)]GlcNAc
Summary of the method: as §1

[33] = biological target: Neu5Ac(a2-3)Gal(b1-4)[Fuc(a1-3)]GlcNAc(b1-3)GalNAc
Summary of the method: as §1

[34] = biological target: Neu5Ac(a2-3)Gal(b1-4)[Fuc(a1-3)]GlcNAc(b1-6)[Gal(b1-3)]GalNAc
Summary of the method: as §1

[35] = biological target: Neu5Ac(a2-3)Gal(b1-4)[Fuc(a1-3)]GlcNAc(b1-6)[Neu5Ac(a2-3)Gal(b1-3)]GalNAc
Summary of the method: as §1

[36] = biological target: Neu5Ac(a2-3)Gal(b1-4)[Fuc(a1-3)]GlcNAc6S
Summary of the method: as §1

[37] = biological target: Neu5Ac(a2-3)Gal6S(b1-4)GlcNAc
Summary of the method: as §1

B1: Gal 9 (Homo sapiens), O00182 (protein)
chain: MAFSGSQAPYLSPAVPFSGTIQGGLQDGLQITVNGTVLSSSGTRFAVNFQTGFSGNDIAFHFNPRFEDGGYVVCNTRQNGSWGPEERKTHMPFQKGMPFDLCFLVQSSDFKVMVNGILFVQYFHRVPFHRVDTISVNGSVQLSYISFQNPRTVPVQPAFSTVPFSQPVCFPPRPRGRRQKPPGVWPANPAPITQTVIHTVQSAPGQMFSTPAIPPMMYPHPAYPMPFITTILGGLYPSKSILLSGTVLPSAQRFHINLCSGNHIAFHLNPRFDENAVVRNTQIDNSWGSEERSLPRKMPFVRGQSFSVWILCEAHCLKVAVDGQHLFEYYHRLRNLPTINRLEVGGDIQLTHVQT
glycan array binding signal (z-score) (Neu5Ac(a2-3)Gal(b1-4)Glc): -0.311 | glycan array binding signal (z-score) [1]: -0.28 | glycan array binding signal (z-score) [2]: -0.251 | glycan array binding signal (z-score) [3]: 1.19 | glycan array binding signal (z-score) [4]: -0.309 | glycan array binding signal (z-score) [5]: -0.305 | glycan array binding signal (z-score) [6]: -0.256 | glycan array binding signal (z-score) [7]: -0.071 | glycan array binding signal (z-score) [8]: -0.294 | glycan array binding signal (z-score) [9]: -0.282 | glycan array binding signal (z-score) [10]: -0.246 | glycan array binding signal (z-score) [11]: -0.288 | glycan array binding signal (z-score) [12]: -0.239 | glycan array binding signal (z-score) [13]: -0.234 | glycan array binding signal (z-score) [14]: -0.14 | glycan array binding signal (z-score) [15]: -0.236 | glycan array binding signal (z-score) [16]: 0.554 | glycan array binding signal (z-score) [17]: -0.247 | glycan array binding signal (z-score) [18]: -0.295 | glycan array binding signal (z-score) [19]: -0.268 | glycan array binding signal (z-score) [20]: -0.289 | glycan array binding signal (z-score) [21]: -0.302 | glycan array binding signal (z-score) [22]: -0.265 | glycan array binding signal (z-score) [23]: -0.32 | glycan array binding signal (z-score) [24]: -0.311 | glycan array binding signal (z-score) [25]: -0.331 | glycan array binding signal (z-score) [26]: -0.336 | glycan array binding signal (z-score) [27]: -0.093 | glycan array binding signal (z-score) [28]: -0.324 | glycan array binding signal (z-score) [29]: -0.281 | glycan array binding signal (z-score) [30]: -0.301 | glycan array binding signal (z-score) [31]: -0.3 | glycan array binding signal (z-score) [32]: -0.324 | glycan array binding signal (z-score) [33]: -0.239 | glycan array binding signal (z-score) [34]: -0.282 | glycan array binding signal (z-score) [35]: -0.299 | glycan array binding signal (z-score) [36]: -0.31 | glycan array binding signal (z-score) [37]: -0.321
